# Laboratory results as given in paper PMC4336329 (PLoS ONE, 2015).
# The whole screen tested about 310,000 compounds, of which about 14,000 (4.5%) showed an effect of 50% or more. Effects have a minus sign here. Some of the results follow.
# Target: human ether-à-go-go-related gene (hERG) potassium channel (human, UniProt Q12809)
# Assay: primary screen, population patch clamp on CHO cells stably expressing hERG
# 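Further: peak tail current of the secondary pulse compared with the same well before compound.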
# Chain of human ether-à-go-go-related gene (hERG) potassium channel (Q12809 whole entry, looked up): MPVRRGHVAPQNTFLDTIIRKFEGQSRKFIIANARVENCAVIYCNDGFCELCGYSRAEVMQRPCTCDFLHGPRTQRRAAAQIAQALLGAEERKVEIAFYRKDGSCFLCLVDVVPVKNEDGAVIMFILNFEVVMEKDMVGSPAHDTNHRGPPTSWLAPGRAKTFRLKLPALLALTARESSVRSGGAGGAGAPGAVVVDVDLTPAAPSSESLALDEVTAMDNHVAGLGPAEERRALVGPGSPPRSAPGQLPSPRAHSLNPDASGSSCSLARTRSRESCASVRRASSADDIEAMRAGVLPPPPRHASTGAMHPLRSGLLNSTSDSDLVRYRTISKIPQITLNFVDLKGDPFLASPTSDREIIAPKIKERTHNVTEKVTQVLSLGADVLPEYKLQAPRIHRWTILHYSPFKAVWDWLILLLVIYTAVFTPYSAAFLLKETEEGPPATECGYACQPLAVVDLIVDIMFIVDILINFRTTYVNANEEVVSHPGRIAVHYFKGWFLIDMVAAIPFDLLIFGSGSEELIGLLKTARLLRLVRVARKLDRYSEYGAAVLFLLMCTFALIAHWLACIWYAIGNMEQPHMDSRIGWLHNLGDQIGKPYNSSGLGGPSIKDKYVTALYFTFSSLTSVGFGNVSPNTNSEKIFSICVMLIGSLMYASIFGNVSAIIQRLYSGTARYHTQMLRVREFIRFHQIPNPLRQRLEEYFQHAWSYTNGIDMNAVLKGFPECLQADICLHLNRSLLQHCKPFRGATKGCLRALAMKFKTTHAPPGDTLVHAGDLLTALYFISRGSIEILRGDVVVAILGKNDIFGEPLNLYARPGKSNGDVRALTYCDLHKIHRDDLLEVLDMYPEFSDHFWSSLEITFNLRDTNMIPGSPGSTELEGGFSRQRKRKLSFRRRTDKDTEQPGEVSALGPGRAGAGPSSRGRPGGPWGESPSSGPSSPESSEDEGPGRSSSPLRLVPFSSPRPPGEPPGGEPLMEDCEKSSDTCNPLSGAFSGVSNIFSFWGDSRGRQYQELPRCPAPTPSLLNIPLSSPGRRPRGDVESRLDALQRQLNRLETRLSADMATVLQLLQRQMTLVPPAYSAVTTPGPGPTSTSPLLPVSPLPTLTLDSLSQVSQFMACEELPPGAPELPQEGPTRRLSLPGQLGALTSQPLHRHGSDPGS
row,SMILES,"hERG current change (%, negative = inhibition) at 10uM"
1,CCNC(=O)NC(=O)c1csc([N+](=O)[O-])c1,10%
2,FC(F)(F)c1cc(-c2ccc(Cl)cc2)nc(NCc2cccnc2)n1,3.07%
3,Cc1ccnc(Nc2nc(-c3ccc(O)cc3O)cs2)c1,12%
4,COc1ccc(C(=O)NCCc2nnc3ccc(SCC(=O)N4CCCC4)nn23)cc1,11.5%
5,Cc1cc2nccc(-c3ccc(OCCCF)cc3)n2n1,-22.3%
6,Cc1ccc(C(=O)CSc2nnc(-c3ccco3)n2CC2CCCO2)cc1 (centres unmarked),-13.3%
7,O=S(=O)(Nc1nccs1)c1ccc(Nc2nnc(-c3ccccc3)c3ccccc23)cc1,13.7%
8,COc1cc([N+](=O)[O-])ccc1NC(=O)CCN1C(=O)C2C3CCC(C3)C2C1=O (centres unmarked),-12.4%
9,Cc1nn2c3ccccc3n(CC(=O)c3cccs3)c2nc1=O,1.78%
10,O=C(Nc1ccccc1)Nc1ccc2ncoc2c1,24.7%
11,CC1(C)CC(NC(=O)C(C)(C)Oc2ccc(Cl)cc2)CC(C)(C)N1,-1.9%
12,CC1CC(C)CN(S(=O)(=O)c2ccc(C(C)(C)C)cc2)C1 (centres unmarked),16%
13,CCN1CCN(c2ccc(S(=O)(=O)N3CCCC3)cn2)CC1,16.2%
14,O=c1oc2ccccc2cc1-c1ccc(O)cc1,-7.37%
15,Cc1ccc(OCC(=O)NC(=S)Nc2ccc(Br)cn2)cc1C,13.8%
16,O=C(OCC(=O)c1cccs1)C1=COCCO1,19.7%
17,O=C(CSc1nnc(CNC(=O)c2c(F)cccc2Cl)o1)Nc1ccc2c(c1)OCCO2,10.6%
18,CC1CCCCN1C(=O)c1ccc(NC(=O)c2ccccc2Cl)cc1 (centres unmarked),7.09%
19,O=C(CSc1nnc2ccccn12)NC(=O)NC1CCCC1,13.4%

row,SMILES,"hERG current change (%, negative = inhibition) at 10uM"
1,COc1cc2c(cc1OC)C(c1ccc(Cl)cc1)CC(=O)N2 (centres unmarked),-2.54%
2,Cc1ccc(OCc2nnnn2-c2ccccc2)cc1,-9.94%
3,Cc1cccc(-c2cc3nc(-c4ccccc4)cc(=O)n3[nH]2)c1,7.06%
4,O=C(c1cc2cc(Cl)ccc2[nH]1)N1CCC2(CC1)OCCO2,-7.66%
5,CC1(c2ccc(OC(F)F)cc2)NC(=O)N(CC(=O)Nc2ccc(S(N)(=O)=O)cc2)C1=O (centres unmarked),1.64%
6,Cc1ccc(NC(=O)CCC(=O)NNC(=O)C(c2ccccc2)c2ccccc2)c(C)c1,14.7%
7,O=C(CNC(=O)c1ccc(Br)o1)NCC(=O)OCc1ccccc1,-15.8%
8,COc1ccc(N(C(=O)c2cccc([N+](=O)[O-])c2)S(=O)(=O)c2ccc3c(c2)n(C)c(=O)n3C)cc1,-5.42%
9,CCCn1c(SCC(=O)NNC(=O)c2ccccc2)nnc1-c1cccnc1,-30.9%
10,Cc1ccc(S(=O)(=O)/N=C(\CN2CCOCC2)N2CCCC2)cc1,10.2%
11,CCOc1cc(N2CCOCC2)c(OCC)cc1NC(=O)CN1CCSC1=O,-13.6%
12,Cc1ccc(OCC(=O)Nc2ccc3oc(=O)ccc3c2)c(C)c1,-26.5%
13,COc1ccc(CCNC(=O)CN(C)S(=O)(=O)c2ccc3nc(C)sc3c2)cc1OC,5.4%
14,COc1ccc(-n2c(SCc3cn4c(C)cccc4n3)nc3ccccc3c2=O)cc1OC,-13.2%
15,CCOc1ccccc1NC(=O)COC(=O)Cc1ccc(-c2ccccc2)cc1,2.11%
16,CC(C)NC(=O)c1ccc(S(=O)(=O)N(C)C)cc1,0.0301%
17,CCN(CC)C(=O)CSc1nnc(-c2ccc(S(=O)(=O)N3CCOCC3)cc2)n1C,10.4%
18,O=C(N/N=C/c1ccc(F)cc1)c1cc(-c2ccco2)nc2ccccc12,-0.0327%
19,Cc1ccc(/C=N/NC(=O)c2cccc([N+](=O)[O-])c2)o1,-15.2%

row,SMILES,"hERG current change (%, negative = inhibition) at 10uM"
1,N[C@@H](Cc1ccc(O)cc1)C(=O)Nc1ccc2ccccc2c1,-6.11%
2,N#CC(C(=O)Nc1ccccc1)=C1CCCCC1,6.6%
3,O=C(NC(=S)N1CCCc2ccccc21)c1ccc(Cl)cc1,4.23%
4,COc1ccc(/C=C(\NC(=O)c2ccc(OC)cc2)C(=O)N2CCCCC2)cc1,-3.21%
5,Cc1ccccc1N1CCN(S(=O)(=O)N(C)C)CC1,0.18%
6,CC1CCCCN1C(=O)c1ccc(Br)o1 (centres unmarked),4.26%
7,CCN(C(=O)COC(=O)CCc1ccccc1)c1ccccc1,6.18%
8,COc1ccccc1N(CC(O)CN(c1ccccc1)S(C)(=O)=O)S(=O)(=O)c1ccccc1 (centres unmarked),-3.85%
9,N#CCCN(C(=O)COC(=O)c1ccc(S(=O)(=O)Nc2ccccc2)cc1)c1ccccc1,1.54%
10,CC1CC(C)CN(C(=O)COc2ccc([N+](=O)[O-])cc2Cl)C1 (centres unmarked),23.8%
11,COCCN(CC(=O)Nc1cccc(C)c1C)C(=O)c1oc2c(Cl)cccc2c1C,-9.84%
12,O=C(CSc1nnc2ccc(-c3ccncc3)nn12)Nc1ccc(F)cc1,-63.2%
13,COc1ccc(C(=O)N2CC3(CC(c4cccc(NC(=O)COc5ccc(Cl)cc5)c4)=NO3)C[C@@H]2C(N)=O)cc1 (some centres unmarked),-22.1%
14,C/C(=N/NC(=O)CSc1nc2ccccc2n1C)c1ccc(O)cc1,21.1%
15,O=C(CCN1C(=O)c2ccccc2S1(=O)=O)N1CCN(c2ccccc2F)CC1,-5.02%
16,CC(C)CN1C(=O)CC(Sc2ccccc2C(=O)O)C1=O (centres unmarked),-10.6%
17,COc1ccc(C2(CNC(=O)Cc3ccccc3)CCCC2)cc1OC,1.4%
18,CCCCCn1c(N(C)Cc2ccccc2)nc2c1c(=O)[nH]c(=O)n2C,-17.1%
